# Experimental data: PubChem BioAssay AID485281 (National Center for Advancing Translational Sciences (NCATS), 2010)
# The whole screen tested about 350,000 compounds, of which about 260 (0.074%) were called active. The shares of active, inactive and inconclusive entries below differ from those in the screen. Calls come from the whole dose curve; as a rule, active = well fitted inhibition curve with a large enough effect; inconclusive = small, poorly fitted or top-dose-only effect; inactive = no such curve, though single readings can be large or run the other way. Potencies of inconclusive entries are doubtful fits and often do not repeat.
# Target: Ferritin light chain (Equus caballus) (UniProt P02791)
# UniProt P02791, sequence (P02791 whole entry, looked up): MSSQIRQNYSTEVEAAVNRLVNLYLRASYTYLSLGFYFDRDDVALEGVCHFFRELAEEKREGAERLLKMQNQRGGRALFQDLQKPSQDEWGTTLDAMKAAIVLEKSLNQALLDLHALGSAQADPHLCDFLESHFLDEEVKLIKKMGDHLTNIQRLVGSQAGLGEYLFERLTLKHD
# Experiment: qHTS Assay for Identification of Novel General Anesthetics; note: nearly all actives have a fitted effect of over 20% in size
# Details: apoferritin/1-aminoanthracene competitive binding, fluorescence; activity change, negative = displacement: at 77.5 µM (top of the series)
# Summary of the method: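 In PBS, apoferritin at 10 uM is loaded with 1-AMA from a 50% saturated solution. After 10 min of compound exposure at ambient temperature, reduced 535 nm fluorescence indicates probe displacement.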
# % is set by controls: 0 for no effect and ±100 for the full control effect; potency is the fitted concentration of half-maximal effect; tags give direction and shape of the fitted curve.
Compound,Potency,"activity change, negative = displacement"
Oc1ccc(CNc2ccc(F)cc2)c2cccnc12,"inconclusive: 35.5 µM [inhibitor, partial curve]",
Cc1ccc(C(=O)CC2(O)C(=O)N(Cc3ccccc3F)c3ccccc32)cc1 (centres undefined),"inconclusive: 15.8 µM [inhibitor, partial curve]",
Cc1onc(C(=O)NN)c1C(=O)Nc1ncc(C(F)(F)F)cc1Cl,"inconclusive: 31.6 µM [inhibitor, single point]",
O=C(c1c(F)cccc1F)N(Cc1ccccn1)C1CC1,"inconclusive: 31.6 µM [inhibitor, partial curve]",
COC(=O)c1ccccc1NC(=O)C1=CC(c2ccc(C)cc2)=NS(=O)(=O)N1C,"inconclusive: 7.94 µM [inhibitor, full curve]",
CC(=O)Nc1ccc(Oc2cnc3ccccc3n2)cc1,"inconclusive: 31.6 µM [inhibitor, partial curve]",
O=C1c2ccncc2C(=O)N1C1CCCCC1,"inconclusive: 31.6 µM [inhibitor, single point]",
S=C(Nc1cccc2ccccc12)NC1CCCCC1,"inconclusive: 31.6 µM [inhibitor, partial curve]",
O=[N+]([O-])c1cc(/C=N/NC(=S)Nc2ccccc2Cl)ccc1Cl,"inconclusive: 6.31 µM [inhibitor, partial curve]",
O=C(NC12CC3CC(CC(C3)C1)C2)c1ccc(-c2ccc(Br)cc2)o1,,inactive: -21.1%
CCOC(=O)CCCc1c[nH]c2ccccc12,"inconclusive: 25.1 µM [inhibitor, partial curve]",
CC(=O)Nc1ccc(S(=O)(=O)N2CCN(c3cccc(C)c3C)CC2)cc1,"inconclusive: 7.08 µM [inhibitor, full curve]",
O=C(CSc1nnc(-c2cccnc2)o1)c1cc2ccccc2oc1=O,,inactive: -5.15%
COC(=O)CN1C(=S)N(c2ccc(Cl)cc2)C(=O)C1CC(=O)Nc1ccc(Cl)cc1 (centres undefined),"inconclusive: 28.2 µM [inhibitor, partial curve]",
Cc1ccc(/C=C(\C#N)C(=O)Nc2c(C)cccc2C)s1,"inconclusive: 11.2 µM [inhibitor, partial curve]",
COc1ccc(CCNC(=O)c2nonc2N)cc1OC,,inactive: -9.87%
COc1ccccc1/C=C/c1nc(S(=O)(=O)c2ccccc2)c(N(C)C)o1,"inconclusive: 28.2 µM [inhibitor, single point]",
c1ccc(-c2noc(CN3CCc4sccc4C3)n2)cc1,,inactive: -13.6%
CCCCn1nc(C(=O)OCC(=O)Nc2sccc2C(N)=O)c2ccccc2c1=O,"inconclusive: 12.6 µM [inhibitor, partial curve]",
CCn1cc(C(=O)N2CCN(c3ccc(F)cc3)CC2)c(=O)c2cc(S(=O)(=O)N(C)C3CCCCC3)ccc21,"inconclusive: 6.31 µM [inhibitor, partial curve]",
CC(C)(C)c1ccc(OCCn2cc(C(=O)c3ccco3)c3ccccc32)cc1,"inconclusive: 20 µM [inhibitor, partial curve]",
CC1(C)CC2(CCO1)OC(=O)CC2C(=O)Nc1cccc2ccccc12 (centres undefined),,inactive: -11.2%
COc1ccc(S(=O)(=O)NCc2ccccc2)cc1Br,"inconclusive: 44.7 µM [inhibitor, single point]",

Compound,Potency,"activity change, negative = displacement"
COc1ccc(/C=N/NC(=O)c2cccc([N+](=O)[O-])c2)cc1OC(=O)c1ccc(C)cc1,"inconclusive: 2.24 µM [inhibitor, full curve]",
CC(=O)Nc1ccc(N2CCCCC2)cc1,"inconclusive: 50.1 µM [inhibitor, single point]",
COCCCNCCOCCOc1ccc(Cl)cc1C(C)(C)C,,inactive: 4.51%
O=C(NCN1CCOCC1)c1cnccn1,,inactive: -2.72%
Cn1c(=O)c2c(nc(CN3CCN(Cc4ccccc4)CC3)n2Cc2ccc(Cl)cc2)n(C)c1=O,"inconclusive: 17.8 µM [inhibitor, partial curve]",
O=C(Nc1ccc(Cl)cc1)c1cc2nc(C3CC3)cc(C(F)(F)F)n2n1,"inconclusive: 5.01 µM [inhibitor, partial curve]",
O=C(O/N=C1\CCCc2ccccc21)C1CC1,"inconclusive: 22.4 µM [inhibitor, partial curve]",
CCCCOc1ccc(CN2C(=O)C(=O)c3cc(Br)cc(C)c32)cc1OC,"inconclusive: 31.6 µM [inhibitor, partial curve]",
O=C1C2C3CCC(C3)C2C(=O)N1Cc1ccco1 (centres undefined),"inconclusive: 14.1 µM [inhibitor, partial curve]",
CCCCOc1ccc(CN=C(N)N)cc1Cl,"inconclusive: 12.6 µM [inhibitor, partial curve]",
CC1CN(Cc2csc(-c3ccc(Cl)cc3)n2)CC(C)O1 (centres undefined),,inactive: -15.3%
CCCCc1ccc(NC(=S)NCCO)cc1,"inconclusive: 31.6 µM [inhibitor, partial curve]",
CCN(CC)CCC(c1ccc(N(C)C)cc1)c1c(OC)cc(OC)c2c(C)cc(=O)oc12 (centres undefined),"inconclusive: 39.8 µM [inhibitor, single point]",
COc1cccc(/C=N/Nc2nc3ccccc3n3cnnc23)c1,,inactive: -0.909%
Cc1cc(NC(=O)CN2C(=O)NC(C)(c3ccccc3)C2=O)no1 (centres undefined),"inconclusive: 31.6 µM [inhibitor, partial curve]",
COc1ccccc1NC(=O)c1ccc(-n2ccnc2)c([N+](=O)[O-])c1,,inactive: -4.56%
O=C(CSc1nnc(-c2ccc(O)cc2)o1)c1ccc(Br)cc1,"inconclusive: 17.8 µM [inhibitor, partial curve]",
NS(=O)(=O)c1ccc(NN=C2CCN(Cc3ccccc3)CC2)c([N+](=O)[O-])c1,"inconclusive: 50.1 µM [inhibitor, partial curve, poor fit]",
COC(=O)c1ccc(NC(=O)c2snnc2-c2ccccc2)cc1,"inconclusive: 31.6 µM [inhibitor, partial curve]",
CC(C)(C)c1ccc(Cn2nnc3c(=O)[nH]c(C4CCCN(C(=O)c5cccs5)C4)nc32)cc1 (centres undefined),"inconclusive: 17.8 µM [inhibitor, single point]",
CCn1c(SCC(=O)N2CCCCCC2)nc2ccccc2c1=O,,inactive: -3.39%
COc1ccc(-c2nc3cc(C)ccn3c2NC(=O)c2ccc(C)c(C)c2)cc1,"inconclusive: 3.55 µM [inhibitor, full curve]",
CCOc1cc(/C=C2/N=C(c3ccc(C(C)(C)C)cc3)OC2=O)cc(Cl)c1OS(C)(=O)=O,"inconclusive: 10 µM [inhibitor, partial curve]",

Compound,Potency,"activity change, negative = displacement"
COc1ccc(OC)c(NC(=O)CSc2ccc(-c3ccco3)nn2)c1,"inconclusive: 17.8 µM [inhibitor, partial curve]",
CCOC(=O)C1CCN(c2nc3ccccc3nc2C(C#N)C(=O)NCCc2ccccc2)CC1 (centres undefined),active: 14.1 µM,
O=C(NC(=S)Nc1ccc(Br)c(Cl)c1)C1CC1,"inconclusive: 14.1 µM [inhibitor, partial curve]",
CCC(C)OC(=O)C1=C(C)NC(=O)NC1c1ccc(F)cc1 (centres undefined),"inconclusive: 31.6 µM [inhibitor, partial curve]",
Cc1cccc(N2CC(C(=O)OCC(=O)c3ccc(OC(=O)c4cccs4)cc3)CC2=O)c1C (centres undefined),"inconclusive: 12.6 µM [inhibitor, partial curve]",
FC(F)(F)c1cc(-c2ccco2)nc(-n2nnc3ccccc32)n1,,inactive: 7.15%
CCCCCCCSc1nnc(-c2ccccc2N)c(=O)[nH]1,"inconclusive: 35.5 µM [inhibitor, partial curve]",
O=C(CSc1ccc2c(c1)OCCO2)NC(=O)NC1CCCC1,"inconclusive: 35.5 µM [inhibitor, partial curve]",
C#CCCCO/N=C1/C[C@@H](O)[C@@H](O)[C@@H]2[C@@H]3C(=O)N(Cc4ccccc4)C(=O)[C@H]3CC[C@@H]12,,inactive: -10.6% [at 15.3 µM]
CCCCCC(=O)N/N=C/c1ccccc1[N+](=O)[O-],"inconclusive: 25.1 µM [inhibitor, partial curve]",
O=C(CN1CCN(C(=O)c2ccco2)CC1)NCc1ccc(Cl)cc1,,inactive: -5.4%
Cc1ccc(Cn2c(SCc3ccc(C(=O)N4CCCCCC4)cc3)nc3ccncc32)cc1,,inactive: -20.4%
COc1ccc(-c2noc(Cn3c(=O)c4ccccc4n(CC(=O)Nc4cccc(OC)c4)c3=O)n2)cc1,,inactive: -10.9%
O=C(CSC1=Nc2ccccc2C2=NC(c3ccccc3)C(=O)N12)NC1CCCCC1 (centres undefined),,inactive: -10.5%
Clc1ccc(CCNc2nc3ccccc3s2)cc1,"inconclusive: 7.08 µM [inhibitor, partial curve]",
O=C(CN1C(=O)NC(Cc2ccccc2)(Cc2ccccc2)C1=O)NCC1CCCCC1,"inconclusive: 39.8 µM [inhibitor, partial curve]",
CC1CCN(S(=O)(=O)c2ccc(C(=O)NCc3ccc4c(c3)OCO4)cc2)CC1,"inconclusive: 11.2 µM [inhibitor, partial curve]",
CS(=O)(=O)Nc1ccc(OCc2ccccc2)cc1,"inconclusive: 35.5 µM [inhibitor, partial curve]",
CCCc1cc(C(=O)NNC(=S)NCc2ccccc2)cs1,"inconclusive: 35.5 µM [inhibitor, partial curve]",
Oc1ccc(N=Nc2c(O)ccc3ccccc23)cc1,"inconclusive: 12.6 µM [inhibitor, partial curve]",
CCC(C)N(C)Cc1cccc(C2(O)CCN(S(=O)(=O)c3ccc(F)c(C)c3)CC2)c1 (centres undefined),,inactive: -11.1%
COc1ccc(S(=O)(=O)NCCSC(C)(C)C)cc1Cl,"inconclusive: 25.1 µM [inhibitor, partial curve]",
CCCCCSc1nc2sc3c(c2c(=O)n1-c1ccccc1)CCN(C(C)=O)C3,,inactive: -16.4%
